# Test results taken from article PMC12820563.
# This is one part of the list. The list includes weakly bound sequences.
# Molecular target: T1, MBP-FoxP3dN (UniProt Q99JB6)
# T1 sequence: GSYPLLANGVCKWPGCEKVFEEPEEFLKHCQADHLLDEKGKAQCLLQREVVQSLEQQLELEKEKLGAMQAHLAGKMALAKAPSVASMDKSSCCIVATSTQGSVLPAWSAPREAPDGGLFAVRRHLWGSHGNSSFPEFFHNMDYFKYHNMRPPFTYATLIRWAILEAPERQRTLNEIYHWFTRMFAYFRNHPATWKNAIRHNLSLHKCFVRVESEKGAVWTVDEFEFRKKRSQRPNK
# Assay: PD-seq (MBP pull-down with sequencing)
# Conditions: 20 mM Tris-HCl pH 7.5, 100 mM NaCl, 1.5 mM MgCl2, 0.4 uM protein, 0.1 uM dsDNA library, 30 min, room temperature, amylose pull-down; high values mean tight binding; double strand, one strand shown
row,Sequence,binding signal (RPM ratio (pull-down/input))
1,GATGATTGTTCTCCCAGCTGATGAATTCACCATGTCGAGTAAACAAATTTTCCTAATCTTTCTGTTCAAGCGCCATCTAC,0.335
2,GATGATTGTTCTCCCAGCTGATGAATTCGTTTGTTCGAGTAAACAAATTTTCCTAATCTTTCTGTTCAAGCGCCATCTAC,5.83
3,GATGATTGTTCTCCCAGCTGATGAATTGACCATTTCGAGTAAACAAATTTTCCTAATCTTTCTGTTCAAGCGCCATCTAC,0.397
4,GATGATTGTTCTCCCAGCTGATGAATTACTATATTCGAGTAAACAAATTTTCCTAATCTTTCTGTTCAAGCGCCATCTAC,0.504
5,GATGATTGTTCTCCCAGCTGATGAATTTGGCTTCTCGAGTAAACAAATTTTCCTAATCTTTCTGTTCAAGCGCCATCTAC,2.06
6,GATGATTGTTCTCCCAGCTGATGAATTGCAAGGTTCGAGTAAACAAATTTTCCTAATCTTTCTGTTCAAGCGCCATCTAC,0.745
7,GATGATTGTTCTCCCAGCTGATGAATTAAACGCCTCGAGTAAACAAATTTTCCTAATCTTTCTGTTCAAGCGCCATCTAC,0.63
8,GATGATTGTTCTCCCAGCTGATGAATTAATCACTTCGAGTAAACAAATTTTCCTAATCTTTCTGTTCAAGCGCCATCTAC,0.787
9,GATGATTGTTCTCCCAGCTGATGAATTTCCCCTCTCGAGTAAACAAATTTTCCTAATCTTTCTGTTCAAGCGCCATCTAC,0.24
10,GATGATTGTTCTCCCAGCTGATGAATTTACTTGTTCGAGTAAACAAATTTTCCTAATCTTTCTGTTCAAGCGCCATCTAC,3.06
11,GATGATTGTTCTCCCAGCTGATGAATTCGACCCATCGAGTAAACAAATTTTCCTAATCTTTCTGTTCAAGCGCCATCTAC,0.343
12,GATGATTGTTCTCCCAGCTGATGAATTCCGAATCTCGAGTAAACAAATTTTCCTAATCTTTCTGTTCAAGCGCCATCTAC,1.7
13,GATGATTGTTCTCCCAGCTGATGAATTAATTAAGTCGAGTAAACAAATTTTCCTAATCTTTCTGTTCAAGCGCCATCTAC,0.313
14,GATGATTGTTCTCCCAGCTGATGAATTAATGTTGTCGAGTAAACAAATTTTCCTAATCTTTCTGTTCAAGCGCCATCTAC,2.61
15,GATGATTGTTCTCCCAGCTGATGAATTGGAATAATCGAGTAAACAAATTTTCCTAATCTTTCTGTTCAAGCGCCATCTAC,0.287
16,GATGATTGTTCTCCCAGCTGATGAATTCCCACGATCGAGTAAACAAATTTTCCTAATCTTTCTGTTCAAGCGCCATCTAC,0.233
17,GATGATTGTTCTCCCAGCTGATGAATTCCTTGACTCGAGTAAACAAATTTTCCTAATCTTTCTGTTCAAGCGCCATCTAC,0.265
18,GATGATTGTTCTCCCAGCTGATGAATTTACCGAGTCGAGTAAACAAATTTTCCTAATCTTTCTGTTCAAGCGCCATCTAC,0.294
19,GATGATTGTTCTCCCAGCTGATGAATTACTCCGCTCGAGTAAACAAATTTTCCTAATCTTTCTGTTCAAGCGCCATCTAC,0.221
20,GATGATTGTTCTCCCAGCTGATGAATTGTCCAGGTCGAGTAAACAAATTTTCCTAATCTTTCTGTTCAAGCGCCATCTAC,0.186
21,GATGATTGTTCTCCCAGCTGATGAATTGTCGTCTTCGAGTAAACAAATTTTCCTAATCTTTCTGTTCAAGCGCCATCTAC,0.777

row,Sequence,binding signal (RPM ratio (pull-down/input))
1,GATGATTGTTCTCCCAGCTGATGAATTAAGTCCATCGAGTAAACAAATTTTCCTAATCTTTCTGTTCAAGCGCCATCTAC,0.318
2,GATGATTGTTCTCCCAGCTGATGAATTATTCTGCTCGAGTAAACAAATTTTCCTAATCTTTCTGTTCAAGCGCCATCTAC,0.328
3,GATGATTGTTCTCCCAGCTGATGAATTGCTACTATCGAGTAAACAAATTTTCCTAATCTTTCTGTTCAAGCGCCATCTAC,0.945
4,GATGATTGTTCTCCCAGCTGATGAATTCTTACTATCGAGTAAACAAATTTTCCTAATCTTTCTGTTCAAGCGCCATCTAC,0.328
5,GATGATTGTTCTCCCAGCTGATGAATTCCGGTAGTCGAGTAAACAAATTTTCCTAATCTTTCTGTTCAAGCGCCATCTAC,0.384
6,GATGATTGTTCTCCCAGCTGATGAATTCTTTTTGTCGAGTAAACAAATTTTCCTAATCTTTCTGTTCAAGCGCCATCTAC,0.437
7,GATGATTGTTCTCCCAGCTGATGAATTTTTATCCTCGAGTAAACAAATTTTCCTAATCTTTCTGTTCAAGCGCCATCTAC,0.287
8,GATGATTGTTCTCCCAGCTGATGAATTGCCTTATTCGAGTAAACAAATTTTCCTAATCTTTCTGTTCAAGCGCCATCTAC,0.85
9,GATGATTGTTCTCCCAGCTGATGAATTAGAGGACTCGAGTAAACAAATTTTCCTAATCTTTCTGTTCAAGCGCCATCTAC,0.299
10,GATGATTGTTCTCCCAGCTGATGAATTAATAACGTCGAGTAAACAAATTTTCCTAATCTTTCTGTTCAAGCGCCATCTAC,0.487
11,GATGATTGTTCTCCCAGCTGATGAATTGGGGTTATCGAGTAAACAAATTTTCCTAATCTTTCTGTTCAAGCGCCATCTAC,0.803
12,GATGATTGTTCTCCCAGCTGATGAATTCAATCGCTCGAGTAAACAAATTTTCCTAATCTTTCTGTTCAAGCGCCATCTAC,0.344
13,GATGATTGTTCTCCCAGCTGATGAATTCTCTGTGTCGAGTAAACAAATTTTCCTAATCTTTCTGTTCAAGCGCCATCTAC,0.353
14,GATGATTGTTCTCCCAGCTGATGAATTTACTTGGTCGAGTAAACAAATTTTCCTAATCTTTCTGTTCAAGCGCCATCTAC,1.26
15,GATGATTGTTCTCCCAGCTGATGAATTTCCACCGTCGAGTAAACAAATTTTCCTAATCTTTCTGTTCAAGCGCCATCTAC,0.248
16,GATGATTGTTCTCCCAGCTGATGAATTGGGGCTTTCGAGTAAACAAATTTTCCTAATCTTTCTGTTCAAGCGCCATCTAC,0.848
17,GATGATTGTTCTCCCAGCTGATGAATTATATGGTTCGAGTAAACAAATTTTCCTAATCTTTCTGTTCAAGCGCCATCTAC,1.29
18,GATGATTGTTCTCCCAGCTGATGAATTACTTATCTCGAGTAAACAAATTTTCCTAATCTTTCTGTTCAAGCGCCATCTAC,0.462
19,GATGATTGTTCTCCCAGCTGATGAATTGACCGGCTCGAGTAAACAAATTTTCCTAATCTTTCTGTTCAAGCGCCATCTAC,0.209
20,GATGATTGTTCTCCCAGCTGATGAATTTAAAAATTCGAGTAAACAAATTTTCCTAATCTTTCTGTTCAAGCGCCATCTAC,0.192
21,GATGATTGTTCTCCCAGCTGATGAATTGCCGCTCTCGAGTAAACAAATTTTCCTAATCTTTCTGTTCAAGCGCCATCTAC,0.765

row,Sequence,binding signal (RPM ratio (pull-down/input))
1,GATGATTGTTCTCCCAGCTGATGAATTAGTATAATCGAGTAAACAAATTTTCCTAATCTTTCTGTTCAAGCGCCATCTAC,1.21
2,GATGATTGTTCTCCCAGCTGATGAATTTCCTGGCTCGAGTAAACAAATTTTCCTAATCTTTCTGTTCAAGCGCCATCTAC,0.226
3,GATGATTGTTCTCCCAGCTGATGAATTATTTTGCTCGAGTAAACAAATTTTCCTAATCTTTCTGTTCAAGCGCCATCTAC,0.946
4,GATGATTGTTCTCCCAGCTGATGAATTCAAGGTATCGAGTAAACAAATTTTCCTAATCTTTCTGTTCAAGCGCCATCTAC,0.478
5,GATGATTGTTCTCCCAGCTGATGAATTGGCCTTATCGAGTAAACAAATTTTCCTAATCTTTCTGTTCAAGCGCCATCTAC,0.637
6,GATGATTGTTCTCCCAGCTGATGAATTAGCCGCATCGAGTAAACAAATTTTCCTAATCTTTCTGTTCAAGCGCCATCTAC,0.945
7,GATGATTGTTCTCCCAGCTGATGAATTTCACACCTCGAGTAAACAAATTTTCCTAATCTTTCTGTTCAAGCGCCATCTAC,0.387
8,GATGATTGTTCTCCCAGCTGATGAATTTCTAGGCTCGAGTAAACAAATTTTCCTAATCTTTCTGTTCAAGCGCCATCTAC,0.195
9,GATGATTGTTCTCCCAGCTGATGAATTCACCGAATCGAGTAAACAAATTTTCCTAATCTTTCTGTTCAAGCGCCATCTAC,0.205
10,GATGATTGTTCTCCCAGCTGATGAATTACACTGTTCGAGTAAACAAATTTTCCTAATCTTTCTGTTCAAGCGCCATCTAC,0.64
11,GATGATTGTTCTCCCAGCTGATGAATTATGTTAATCGAGTAAACAAATTTTCCTAATCTTTCTGTTCAAGCGCCATCTAC,1.49
12,GATGATTGTTCTCCCAGCTGATGAATTCCACGACTCGAGTAAACAAATTTTCCTAATCTTTCTGTTCAAGCGCCATCTAC,0.254
13,GATGATTGTTCTCCCAGCTGATGAATTAAAAAGTTCGAGTAAACAAATTTTCCTAATCTTTCTGTTCAAGCGCCATCTAC,0.166
14,GATGATTGTTCTCCCAGCTGATGAATTCTATGCGTCGAGTAAACAAATTTTCCTAATCTTTCTGTTCAAGCGCCATCTAC,0.794
15,GATGATTGTTCTCCCAGCTGATGAATTCCCCCTATCGAGTAAACAAATTTTCCTAATCTTTCTGTTCAAGCGCCATCTAC,0.276
16,GATGATTGTTCTCCCAGCTGATGAATTGGACGTCTCGAGTAAACAAATTTTCCTAATCTTTCTGTTCAAGCGCCATCTAC,0.388
17,GATGATTGTTCTCCCAGCTGATGAATTTTCTCAATCGAGTAAACAAATTTTCCTAATCTTTCTGTTCAAGCGCCATCTAC,0.217
18,GATGATTGTTCTCCCAGCTGATGAATTTCCTCCTTCGAGTAAACAAATTTTCCTAATCTTTCTGTTCAAGCGCCATCTAC,0.196
19,GATGATTGTTCTCCCAGCTGATGAATTCCGGTGCTCGAGTAAACAAATTTTCCTAATCTTTCTGTTCAAGCGCCATCTAC,0.487
20,GATGATTGTTCTCCCAGCTGATGAATTGAGGCTGTCGAGTAAACAAATTTTCCTAATCTTTCTGTTCAAGCGCCATCTAC,0.873
21,GATGATTGTTCTCCCAGCTGATGAATTTGACTATTCGAGTAAACAAATTTTCCTAATCTTTCTGTTCAAGCGCCATCTAC,0.671
